Measurements published in PubChem BioAssay (NCI).
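All cell lines were grown in 96-well plates and treated with compound for 48 hours. The concentration for full growth arrest is given as TGI.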 For part of its entries the source gives two or more results. This is not the full list of results. There may be further records. The tests behind the records often covered other concentration ranges, not given here; some values may only mark the edge of a range.

Assays:
Test in all cases: NCI tumour cell line growth inhibition, 48 h
HT29 colon = tested on: HT29 colon
LOX IMVI melanoma = tested on: LOX IMVI melanoma
RXF 393 renal = tested on: RXF 393 renal
MDA-MB-435 = tested on: MDA-MB-435
UACC-62 melanoma = tested on: UACC-62 melanoma
NCI-H522 lung = tested on: NCI-H522 lung
SN12C renal = tested on: SN12C renal
NCI-H460 lung = tested on: NCI-H460 lung
U251 CNS = tested on: U251 CNS
HOP-62 NSCLC = tested on: HOP-62 NSCLC
SF-295 CNS = tested on: SF-295 CNS
MCF7 breast = tested on: MCF7 breast
KM20L2 colon = tested on: KM20L2 colon
M19-MEL melanoma = tested on: M19-MEL melanoma
HOP-92 NSCLC = tested on: HOP-92 NSCLC
K-562 leukemia = tested on: K-562 leukemia
HCT-116 colon = tested on: HCT-116 colon
RPMI-8226 leukemia = tested on: RPMI-8226 leukemia
P388 leukemia = tested on: P388 leukemia
SN12K1 renal = tested on: SN12K1 renal
OVCAR-4 ovarian = tested on: OVCAR-4 ovarian
XF 498 CNS = tested on: XF 498 CNS
NCI-H23 lung = tested on: NCI-H23 lung
MOLT-4 leukemia = tested on: MOLT-4 leukemia
SR leukemia = tested on: SR leukemia
OVCAR-3 ovarian = tested on: OVCAR-3 ovarian
SK-MEL-5 melanoma = tested on: SK-MEL-5 melanoma
SK-MEL-28 melanoma = tested on: SK-MEL-28 melanoma
HOP-18 NSCLC = tested on: HOP-18 NSCLC
NCI/ADR-RES ovarian = tested on: NCI/ADR-RES ovarian
A549 NSCLC = tested on: A549 NSCLC
COLO 205 colon = tested on: COLO 205 colon
SK-MEL-2 melanoma = tested on: SK-MEL-2 melanoma
DMS 273 small cell lung = tested on: DMS 273 small cell lung
KM12 colon = tested on: KM12 colon
P388/ADR leukemia = tested on: P388/ADR leukemia
DMS 114 small cell lung = tested on: DMS 114 small cell lung
OVCAR-5 ovarian = tested on: OVCAR-5 ovarian
UACC-257 melanoma = tested on: UACC-257 melanoma
DLD-1 colon = tested on: DLD-1 colon
SF-539 CNS = tested on: SF-539 CNS
SNB-78 CNS = tested on: SNB-78 CNS
IGROV1 ovarian = tested on: IGROV1 ovarian
SNB-75 CNS = tested on: SNB-75 CNS
SNB-19 CNS = tested on: SNB-19 CNS
SF-268 CNS = tested on: SF-268 CNS
SK-OV-3 ovarian = tested on: SK-OV-3 ovarian
SW-620 colon = tested on: SW-620 colon
MALME-3M melanoma = tested on: MALME-3M melanoma
HL-60(TB) leukemia = tested on: HL-60(TB) leukemia
UO-31 renal = tested on: UO-31 renal
CCRF-CEM leukemia = tested on: CCRF-CEM leukemia
OVCAR-8 ovarian = tested on: OVCAR-8 ovarian
HCC-2998 colon = tested on: HCC-2998 colon
EKVX NSCLC = tested on: EKVX NSCLC
CAKI-1 renal = tested on: CAKI-1 renal
HCT-15 colon = tested on: HCT-15 colon

## COC1C(OC(=O)/C=C/C=C/C=C/C=C/C(=O)O)CCC2(CO2)C1C1(C)OC1CC=C(C)C (stereo not given)
HT29 colon
  TGI: 601 nM and > 82.1 µM
LOX IMVI melanoma
  TGI: 859 nM and > 78.1 µM
RXF 393 renal
  TGI: 702 nM and 97.9 µM
MDA-MB-435
  TGI: 419 nM and 41.1 µM
UACC-62 melanoma
  TGI: 316 nM and 79.2 µM
NCI-H522 lung
  TGI: 656 nM and 78.7 µM
SN12C renal
  TGI: 926 nM and > 89.1 µM
NCI-H460 lung
  TGI: 584 nM and > 100 µM
U251 CNS
  TGI: 739 nM and > 100 µM

## COc1cccc2c1C(=O)c1c(O)c3c(c(O)c1C2=O)C[C@@](O)(C(=O)CO)C[C@@H]3OC1CC(N2CCOCC2)C(O)C(C)O1 (stereo not given in full)
HOP-62 NSCLC
  TGI: 0.25 nM [1 test] and 36.6 nM, 4.72 nM [mean of 7 tests] and 323 nM [mean of 8 tests]
SF-295 CNS
  TGI: 0.00686, 0.25, 9.99, 39.8, 156, 3.39 nM
MCF7 breast
  TGI: 0.25 nM, 1.09 µM, 1.29 µM, 221 nM
KM20L2 colon
  TGI: 0.25, 7.58, 93.5, 382, 17.1 nM
HT29 colon
  TGI: 0.25 nM [1 test] and 56.4 nM [mean of 5 tests] and 94.7 nM [mean of 6 tests] and 1.42 µM [mean of 7 tests]
M19-MEL melanoma
  TGI: 0.25, 14.9, 40.3, 21.4 nM
HOP-92 NSCLC
  TGI: 8.82, 31.4, 161, 3.16 nM
LOX IMVI melanoma
  TGI: 0.0318, 38.3, 84, 233 nM
RXF 393 renal
  TGI: 0.0371, 10.5, 86.3, 5.86 nM
K-562 leukemia
  TGI: 8.99, 52.3, 837, 197 nM
HCT-116 colon
  TGI: 0.0602 nM, 288 nM, 395 nM, 2.23 µM
RPMI-8226 leukemia
  TGI: 7.77, 27.4, 184, 43.2 nM
P388 leukemia
  TGI: 0.02, 0.25, 22.9, 33 nM
SN12K1 renal
  TGI: 0.115 nM [1 test] and 22.7 nM [mean of 4 tests] and 19.6 nM [mean of 5 tests]
OVCAR-4 ovarian
  TGI: 0.133 nM [1 test] and 95.2 nM [mean of 6 tests] and 424 nM, 16.4 nM [mean of 8 tests]
XF 498 CNS
  TGI: 9.25 nM, 44.6 nM, 2.79 nM
NCI-H23 lung
  TGI: 0.25, 15.9, 127, 28.6 nM
UACC-62 melanoma
  TGI: 0.0865 nM [1 test] and 7.62 nM [mean of 4 tests] and 9.73 nM [mean of 7 tests] and 16.9 nM [mean of 8 tests]
NCI-H522 lung
  TGI: 0.25 nM, 7.65 nM, < 16.9 nM, 192 nM, 8.9 nM
MOLT-4 leukemia
  TGI: 0.25, 8.48, 18, 110, 192 nM
SN12C renal
  TGI: 0.25, 404, 768, 952 nM
SR leukemia
  TGI: 7.32 nM and 171 nM
OVCAR-3 ovarian
  TGI: 0.25, 26.6, 744, 19.5 nM
SK-MEL-5 melanoma
  TGI: 0.00608, 0.25, 24.4, 70, 2.8 nM
SK-MEL-28 melanoma
  TGI: 0.25, 49.1, 209, 5.55 nM
HOP-18 NSCLC
  TGI: 17.2 nM, 687 nM, 121 nM
NCI/ADR-RES ovarian
  TGI: 0.011 nM, 376 nM, 1.87 µM, 42.7 nM
A549 NSCLC
  TGI: 0.25 nM [1 test] and 591 nM [mean of 4 tests] and 0.00738 nM [mean of 5 tests] and 1.16 µM [mean of 7 tests] and 436 nM [mean of 8 tests]
COLO 205 colon
  TGI: 0.00616, 0.25, 52, 126, 5.36 nM
SK-MEL-2 melanoma
  TGI: 0.25, 7.28, 20.5, 122, 2.54 nM
DMS 273 small cell lung
  TGI: 0.00541, 8.05, 27.6, 78.2, 3.66 nM
KM12 colon
  TGI: 11.5 nM [mean of 2 tests] and 9.16 nM [mean of 4 tests] and 0.02 nM [mean of 5 tests] and 58.5 nM [mean of 6 tests] and 489 nM [mean of 8 tests]
P388/ADR leukemia
  TGI: 46.5 nM and 3.1 nM
NCI-H460 lung
  TGI: 8.28, 48.5, 333, 18.3 nM
DMS 114 small cell lung
  TGI: 18 nM, 125 nM, 6.03 nM
OVCAR-5 ovarian
  TGI: 0.25, 8.46, 42.3, 598, 11.2 nM
UACC-257 melanoma
  TGI: 8.35, 18, 133, 4.32 nM
DLD-1 colon
  TGI: 0.25 nM, 53.9 nM, 2.13 µM, 623 nM
SF-539 CNS
  TGI: 0.25, 15.6, 133, 2.78 nM
SNB-78 CNS
  TGI: 0.25 nM, 9.42 nM, 550 nM, 3.02 µM, 46.8 nM
IGROV1 ovarian
  TGI: 0.00676 nM, 0.25 nM, 212 nM, 598 nM, 2.34 µM
SNB-75 CNS
  TGI: 0.25, 15.5, 37.9, 2.67 nM
SNB-19 CNS
  TGI: 9.42 nM, 1.65 µM, 740 nM, 1.49 µM
SF-268 CNS
  TGI: 0.25 nM [1 test] and 44.3 nM [mean of 6 tests] and 223 nM [mean of 7 tests] and 268 nM [mean of 9 tests]
SK-OV-3 ovarian
  TGI: 0.25, 258, 713, 105 nM
SW-620 colon
  TGI: 0.00665 nM, 0.25 nM, 9.78 nM, 216 nM, 1.55 µM, 982 nM
MALME-3M melanoma
  TGI: 19.4 nM, 73.9 nM, 3.26 nM
HL-60(TB) leukemia
  TGI: 8.07, 29, 173, 6.73 nM
UO-31 renal
  TGI: 0.25 nM, 418 nM, 107 nM, < 16.3 nM
CCRF-CEM leukemia
  TGI: 8.69 nM, 97.8 nM, 1.06 µM, 49.4 nM
OVCAR-8 ovarian
  TGI: 0.00768, 8.66, 85.2, 507, 45.5 nM
HCC-2998 colon
  TGI: 0.02 nM [mean of 4 tests] and 13.9 nM [mean of 6 tests] and 3.49 nM [mean of 7 tests] and 195 nM [mean of 8 tests]
EKVX NSCLC
  TGI: 8.3, 67.8, 264, 4.75 nM
CAKI-1 renal
  TGI: 0.25 nM [1 test] and 49.1 nM [mean of 3 tests] and 0.0152 nM, 60.6 nM [mean of 4 tests] and 183 nM [mean of 8 tests]
HCT-15 colon
  TGI: 0.25, 8.27, 47.1, 427, 291 nM
U251 CNS
  TGI: 0.00739 nM, 0.25 nM, 136 nM, 1.69 µM, 508 nM
